Source: the supplement of paper PMC7125110
Variants at the background level are over-represented here.

B1: glmS ribozyme (parent)
chain: AUAAAAGCGCCAGAACUACAGAAAUGUAGUUGACGAGGAGGAGGUUUAUCGAAUUUUCGGCGGAUGCCUCCAAA

How the values were obtained:
Conditions in all cases: with glucosamine-6-phosphate
[1] = variants of: B1; assay: self-cleavage kobs at 640 uM GlcN6P; higher = faster cleavage; RNA array
Method in brief: (§1)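 Glucosamine-6-phosphate (40 μM to 10 mM) in HEPES/KCl/Mg(OAc)2 buffer was flowed over sequenced MiSeq chips, and tiles were imaged over ~14 h. Barcoded ribozyme variants there had been transcribed in situ by E. coli RNA polymerase and were tracked through a hybridised Cy3 probe at 37 °C. One- or two-exponential decay fits to per-tile medians, normalised to baseline and to non-cleaving reference variants, gave kobs. kcat and KM came from weighted Michaelis–Menten fits across concentrations.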

[2] = variants of: B1; assay: self-cleavage kobs at 10000 uM GlcN6P; higher = faster cleavage; RNA array
Method in brief: as §1

[3] = variants of: B1; assay: self-cleavage kobs at 2500 uM GlcN6P; higher = faster cleavage; RNA array
Method in brief: as §1

[4] = variants of: B1; assay: self-cleavage kobs at 160 uM GlcN6P; higher = faster cleavage; RNA array
Method in brief: as §1

Variant | self-cleavage kobs at 640 uM GlcN6P [1] [s⁻¹] | self-cleavage kobs at 10000 uM GlcN6P [2] [s⁻¹] | self-cleavage kobs at 2500 uM GlcN6P [3] [s⁻¹] | self-cleavage kobs at 160 uM GlcN6P [4] [s⁻¹]
A42C A48U | < 1e-05 | < 1e-05 | – | –
A42C A53C G60A | < 1e-05 | – | < 1e-05 | –
A42C C70G C71A | < 1e-05 | – | < 1e-05 | –
A42C C70U C71U | < 1e-05 | – | – | < 1e-05
A42C G43U | < 1e-05 | – | < 1e-05 | < 1e-05
A42C U46C | < 1e-05 | – | – | < 1e-05
A42C U47C C70G | < 1e-05 | – | – | –
A42C U54C A64G C68A | < 1e-05 | < 1e-05 | < 1e-05 | < 1e-05
A42C U56C G60U | < 1e-05 | – | – | –
A42G A48U C61A C67G | < 1e-05 | – | < 1e-05 | –
A42G A53C G62A | < 1e-05 | – | < 1e-05 | –
A42G G43A G44C | < 1e-05 | – | < 1e-05 | –
A42G G43C G62C C68G | < 1e-05 | – | < 1e-05 | < 1e-05
A42U A64C | < 1e-05 | – | – | –
A42U C50G U55G | < 1e-05 | – | < 1e-05 | –
A42U G44U C70G | < 1e-05 | – | < 1e-05 | < 1e-05
A42U U55A G60A C71G | < 1e-05 | – | < 1e-05 | < 1e-05
A42U U55C U57C | < 1e-05 | – | – | < 1e-05
G43A A48G A53U G62C | < 1e-05 | – | – | –
G43A C50A U55C C70A | < 1e-05 | < 1e-05 | < 1e-05 | –
G43A C50G C67A | < 1e-05 | – | – | –
G43A C70A | < 1e-05 | < 1e-05 | – | < 1e-05
G43A G51C | < 1e-05 | < 1e-05 | < 1e-05 | < 1e-05
G43A G51C A64G | < 1e-05 | – | – | –
G43A G62U C71A | < 1e-05 | – | – | < 1e-05
G43A U46C U54A U56A U69C | < 1e-05 | – | – | –
G43A U49G C50G U57C | < 1e-05 | – | – | –

Variant | self-cleavage kobs at 640 uM GlcN6P [1] [s⁻¹] | self-cleavage kobs at 10000 uM GlcN6P [2] [s⁻¹] | self-cleavage kobs at 2500 uM GlcN6P [3] [s⁻¹] | self-cleavage kobs at 160 uM GlcN6P [4] [s⁻¹]
G43A U55C | < 1e-05 | – | – | –
G43C A52G | < 1e-05 | < 1e-05 | – | < 1e-05
G43C A52U U57G G60A | < 1e-05 | – | < 1e-05 | –
G43C A64C | < 1e-05 | < 1e-05 | < 1e-05 | < 1e-05
G43C C58G G59A A64G C67G | < 1e-05 | – | < 1e-05 | < 1e-05
G43C C58U C70A | < 1e-05 | – | < 1e-05 | < 1e-05
G43C G44A | < 1e-05 | – | < 1e-05 | < 1e-05
G43C G44C A53G | < 1e-05 | – | < 1e-05 | < 1e-05
G43C G44U G60U | < 1e-05 | – | – | –
G43C G51C | < 1e-05 | < 1e-05 | – | –
G43C G60A G63U | < 1e-05 | – | – | < 1e-05
G43C G63A | < 1e-05 | – | < 1e-05 | –
G43C U45C U55A | < 1e-05 | – | < 1e-05 | –
G43C U65G | < 1e-05 | – | – | –
G43C U69A | < 1e-05 | < 1e-05 | < 1e-05 | < 1e-05
G43U A52C G66C C68G | < 1e-05 | – | < 1e-05 | –
G43U A52C U65G | < 1e-05 | – | < 1e-05 | < 1e-05
G43U A64C U65C | < 1e-05 | – | < 1e-05 | < 1e-05
G43U G44U A48U | < 1e-05 | – | < 1e-05 | –
G43U G51U C71U | < 1e-05 | – | < 1e-05 | –
G43U G60U | < 1e-05 | < 1e-05 | < 1e-05 | < 1e-05
G43U G63U A64U | < 1e-05 | – | < 1e-05 | –
G43U G66U C71G | < 1e-05 | – | < 1e-05 | –
G43U U45A C50G A52U U56A C68G U69A | < 1e-05 | < 1e-05 | < 1e-05 | –
G43U U69C C70G | < 1e-05 | – | – | < 1e-05
G44A A48U U56G | < 1e-05 | – | < 1e-05 | –
